In PubChem BioAssay AID504845 (National Center for Advancing Translational Sciences (NCATS), 2011):
Several values for one entry are separate records, joined by “and”; a condition that tells them apart may be missing. Identical values can stand only once. Hit rate of the full screen: of about 390,000 compounds, about 150 (0.038%) were called active. Inconclusive means that the source gave no clear call. Such entries were picked first, then a sample of the others. Calls come from the whole dose curve; as a rule, active = well fitted inhibition curve with a large enough effect; inconclusive = small, poorly fitted or top-dose-only effect; inactive = no such curve, though single readings can be large or run the other way. A potency beside an inconclusive call is a rough fit, not a confirmed value.

molecular target: Regulator of G-protein signaling 4 (Homo sapiens) (UniProt P49798); test: Inhibitors of Regulator of G Protein Signaling (RGS) 4: qHTS; details: Transcreener GDP fluorescence polarization, RGS4-accelerated GTP hydrolysis; series mostly up to 114 µM; note: nearly all actives have a fitted effect of over 75% in size
Method in brief: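 MLSMR compounds (23 nl, pin-transferred) preincubated 10 min at room temperature with a 500nM (2x) first reagent, then RGS4 at 900nM (2x) plus Transcreener GDP mix added; fluorescence polarization (620/688 nm) read before and after 90 min at 30 °C.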
Potency is the fitted concentration of half-maximal effect; tags give direction and shape of the fitted curve.

UniProt P49798, sequence (P49798 whole entry, looked up): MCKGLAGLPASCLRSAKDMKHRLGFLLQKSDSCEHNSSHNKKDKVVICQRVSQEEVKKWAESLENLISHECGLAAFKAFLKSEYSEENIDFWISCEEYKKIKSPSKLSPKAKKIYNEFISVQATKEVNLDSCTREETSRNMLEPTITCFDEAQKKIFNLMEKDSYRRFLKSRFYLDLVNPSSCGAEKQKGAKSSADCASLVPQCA

SMILES	Potency
COc1ccc(NCc2nnc(SCC(=O)c3ccc(OC)cc3)n2C)cc1	inconclusive: 100 µM [inhibitor, partial curve, poor fit]
O=C(c1ccccc1)N1N=C(c2ccccc2)CC1c1ccccc1O (stereo not drawn)	inconclusive: 17.8 µM [inhibitor, full curve, poor fit]
COc1ccc(/C=C2/C(=O)ON=C2C)cc1Br	inconclusive: 50.1 µM [inhibitor, partial curve, poor fit]
CN(CC(=O)Nc1ccccc1Cl)C(=O)COC(=O)c1cc([N+](=O)[O-])ccc1N1CCOCC1	inconclusive: 89.1 µM [inhibitor, single point]
COc1ccc(NC(=O)Cn2cc(C(=O)c3ccncc3)c(=O)c3cc(C)ccc32)cc1Cl	inconclusive: 17.8 µM [inhibitor, full curve, poor fit]
CC1(C)CC(=O)C2=C(C1)NC1=C(C(=O)c3ccccc31)C2c1cc([N+](=O)[O-])ccc1O (stereo not drawn)	inconclusive: 79.4 µM [inhibitor, single point]
CCNc1nc(Oc2ccc(=O)[nH]n2)nc(SC)n1	inconclusive: 89.1 µM [inhibitor, single point]
CN(C)/C=N/c1nc2nccc(-c3ccccc3)n2n1	inconclusive: 39.8 µM [inhibitor, partial curve, poor fit]
CCN(CC)c1ccc(NC(=O)c2ccccn2)cc1S(=O)(=O)Nc1ccccc1OC	inconclusive: 89.1 µM [inhibitor, partial curve, poor fit]
COc1ccc(N=C2NC(=O)/C(=C\C=C\c3ccccc3)S2)cc1	inconclusive: 44.7 µM [inhibitor, partial curve, poor fit]
Cc1csc(NC(=O)c2cccc(S(=O)(=O)N3CCN(C)CC3)c2)n1	inconclusive: 70.8 µM [inhibitor, partial curve, poor fit]
O=C(Nc1cccnc1)c1ccc([N+](=O)[O-])s1	inactive
Cc1nn(C)c(C(=O)Sc2cccc(Cl)c2)c1[N+](=O)[O-]	inconclusive: 10 µM [inhibitor, full curve, poor fit]
CCOc1ccc(-n2ccnc(SCC(=O)NCc3cccc(OC)c3)c2=O)cc1	inconclusive: 100 µM [inhibitor, single point]
CCOC(=O)c1c(NC(=O)COc2ccc(CC)cc2)sc2c1CCCC2	inactive
O=C(COC(=O)c1ccc[nH]c1=O)NCC1CCCO1 (stereo not drawn)	inconclusive: 79.4 µM [inhibitor, single point]
O=C1C(C=Nc2ccccc2O)=C(O)c2ccccc21	inactive
C/C=C1\COC(C(=O)NC)(C(F)(F)F)C=C1C=C1CCCCC1 (stereo not drawn)	inconclusive: 35.5 µM [inhibitor, full curve, poor fit]
O=c1[nH]c(C2CCN(S(=O)(=O)c3ccccc3)CC2)nc2c1nnn2Cc1ccccc1	inconclusive: 100 µM [inhibitor, partial curve, poor fit]
CN(C)Cc1ccccc1C(O)(c1ccccc1)c1ccccc1	inconclusive: 79.4 µM [inhibitor, partial curve, poor fit]
C=CCc1cccc(/C=N/NC(=O)C(=O)Nc2ccc(C)cc2)c1O	inconclusive: 44.7 µM [inhibitor, partial curve, poor fit]

SMILES	Potency
Cc1ncc(CO)c(/C=N/Nc2ccc(C(F)(F)F)cn2)c1O	inconclusive: 44.7 µM [inhibitor, partial curve, poor fit]
COc1ccc(C(C2C(=O)CC(C)(C)CC2=O)C2C(=O)CC(C)(C)CC2=O)cc1CO	inconclusive: 39.8 µM [inhibitor, partial curve, poor fit]
CCc1ccc2c(c1)C(=O)C(=O)N2CC(=O)Nc1ccc(NC(=O)c2ccccn2)cc1	inconclusive: 17.8 µM [inhibitor, full curve, poor fit]
COCCCn1c(C)cc(C(=O)CN2c3cccc4cccc(c34)S2(=O)=O)c1C	inconclusive: 17.8 µM [inhibitor, partial curve, poor fit]
CC1(C)CC(=O)C2=C(C1)OC1=C(C(=O)CC(C)(C)C1)C2c1cc([N+](=O)[O-])cc([N+](=O)[O-])c1O	inconclusive: 17.8 µM [inhibitor, full curve, poor fit]
Nn1cnnc1N/N=C/c1cc(Br)cc(Br)c1O	inactive
Cc1ccc(-c2nn(-c3ccccc3)cc2/C=C2\SC(=S)N(CCCCCC(=O)O)C2=O)o1	inconclusive: 70.8 µM [inhibitor, partial curve, poor fit]
COc1ccccc1NC(=O)CCC(=O)Nc1cc(OC)c(NC(=O)c2cccs2)cc1OC	inconclusive: 50.1 µM [inhibitor, partial curve, poor fit]
O=C(CSc1nccn1-c1ccc(Cl)cc1)Nc1ccc(Cl)c(Cl)c1	inconclusive: 44.7 µM [inhibitor, partial curve, poor fit]
NC(=O)SCC(=O)Nc1ccccc1C(=O)O	inconclusive: 17.8 µM [inhibitor, full curve, poor fit]
Cc1ccc(S(=O)(=O)CNC(=S)c2cccc(Cl)c2)cc1	inactive
COC(=O)c1cc(=O)n(-c2ccccc2)c(=Nc2ccccc2)s1	inactive
Cc1sc(NC(=O)CSc2nc(O)cc(=O)[nH]2)nc1-c1ccccc1	inconclusive: 56.2 µM [inhibitor, partial curve, poor fit]
O=C(/C=C/c1ccc(Br)cc1)NC(=S)Nc1ccc(S(=O)(=O)Nc2nccs2)cc1	inactive
CCCN(CCC)CCCNC(=O)c1cc2c(-c3ccc(OC)c(OC)c3)nn(C)c2s1	inconclusive: 89.1 µM [inhibitor, single point]
COc1cc([N+](=O)[O-])c(OC)cc1SCc1n[nH]c(=S)n1-c1ccc(F)cc1	inconclusive: 44.7 µM [inhibitor, partial curve, poor fit]
CCOC(=O)c1c(N)sc2c(NC(C)=O)cccc12	inconclusive: 89.1 µM [inhibitor, single point]
Cc1ccc(Cn2nc(C)cc2C(=O)Nc2ccc(Cl)cc2)cc1	inactive
CCN(CC)CCCCNc1ncc2cc(-c3cc(OC)cc(OC)c3)c(NC(=O)NC(C)(C)C)nc2n1	inactive
O=C(Nc1cccc(S(=O)(=O)N2CCCCC2)c1)c1ccc2ncsc2c1	inactive
CNCc1ccccc1Sc1cc(O)ccc1O	inconclusive: 31.6 µM [inhibitor, full curve, poor fit]

SMILES	Potency
COc1ccccc1OCC(=O)N1CCN(C(=O)c2ccco2)CC1	inconclusive: 100 µM [inhibitor, single point]
O=C(c1ccccc1)c1ccc(-n2ccnc2)c([N+](=O)[O-])c1	inactive
CN(C)CCCN(C(=O)c1cc2cc([N+](=O)[O-])ccc2s1)c1nc2cc3c(cc2s1)OCCO3	inconclusive: 50.1 µM [inhibitor, partial curve, poor fit]
N#CC1=C2SCN(c3ccccc3)CN2C(=O)CC1c1c(Cl)cccc1Cl (stereo not drawn)	inconclusive: 20 µM [inhibitor, full curve, poor fit] and inconclusive: 17.8 µM [inhibitor, full curve, poor fit]
COc1ccc(N2CSC3=C(C#N)C(c4cc(OC)c(OC)cc4OC)CC(=O)N3C2)c(OC)c1 (stereo not drawn)	inconclusive: 28.2 µM [inhibitor, full curve, poor fit]
COCCNCCCCOc1ccc(C)cc1[N+](=O)[O-]	inactive
Cc1ccc(N=Cc2sc(O)c3ccccc23)c(C)c1	inactive
CC1CC(C)CN(C(=O)CNS(=O)(=O)c2ccc(Br)s2)C1 (stereo not drawn)	inactive
COc1ccc(C)cc1NC(=O)C(NCC1CCCO1)c1ccccc1 (stereo not drawn)	inactive
CN=c1scc(-c2ccc(Cl)cc2)n1C	inactive
N=c1n(Cc2ccccc2)c2ccccc2n1CC(O)COc1ccc(Cl)cc1Cl (stereo not drawn)	inconclusive: 79.4 µM [inhibitor, partial curve, poor fit]
CC1CCCCC1N1CCN(C(=O)c2cccc(F)c2)CC1 (stereo not drawn)	inconclusive: 79.4 µM [inhibitor, single point]
CSCCCN1CCC(n2nccc2NC(=O)CCCc2ccccc2)CC1	inconclusive: 89.1 µM [inhibitor, single point]
O=[N+]([O-])c1cccc(/C=C/c2nc3ccc([N+](=O)[O-])cc3[nH]2)c1	inconclusive: 50.1 µM [inhibitor, partial curve, poor fit]
CCNc1nc(NCC)n2c(SCC(=O)Nc3ccc(Br)cc3F)nnc2n1	inconclusive: 44.7 µM [inhibitor, partial curve, poor fit]
O=C(CN1C(=O)S/C(=C\c2ccc(Cl)cc2)C1=O)NNC(=O)c1ccccc1O	inconclusive: 89.1 µM [inhibitor, single point]
O=C(NCCc1ccccc1)c1cnc2n(c1=O)CCS2	inactive
COc1ccc(/C=N/NC(=O)c2cccc(Br)c2)cc1CSc1ccccn1	inactive
O=C(COC(=O)CNC(=O)c1ccc(Cl)cc1)Nc1ccc2c(c1)OCCO2	inconclusive: 79.4 µM [inhibitor, partial curve, poor fit]
COc1ccc(OCC(=O)NC(=S)Nc2ccc(N3CCOCC3)c(Cl)c2)cc1	inconclusive: 50.1 µM [inhibitor, partial curve, poor fit]
CCN(CC)/[N+]([O-])=N/Oc1cc(O/N=[N+](\[O-])N(C)C)c([N+](=O)[O-])cc1[N+](=O)[O-]	inactive
